Several values for one entry are separate records, joined by “and”; a condition that tells them apart may be missing. Identical values can stand only once. Among all 310,000 compounds or so, about 18,000 (5.8%) were called active. The inconclusive results got no clear call from the source; some entries with a clear call stand among them for comparison. Calls come from the whole dose curve; as a rule, active = well fitted inhibition curve with a large enough effect; inconclusive = small, poorly fitted or top-dose-only effect, or another doubt; inactive = no such curve, though single readings can be large or run the other way. Potencies of inconclusive entries are doubtful fits and often do not repeat.
test: Primary qHTS for delayed death inhibitors of the malarial parasite plastid, 48 hour incubation; details: P. falciparum luciferase growth in erythrocytes; series mostly up to 28.7 µM
Summary of the method: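 Parasite viability was followed by luminescence of a genomically integrated firefly luciferase. Cultures held 0.1% parasitemia at 2% hematocrit (final), incubated under 5% CO2 at 37 C.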
Potency is the fitted concentration of half-maximal effect; tags give direction and shape of the fitted curve.

Row | Compound | Potency
1 | NC(=O)C1CCN(CC(=O)Nc2ccccc2Sc2ccccc2)CC1 | inactive
2 | CC(C)N1C(=O)/C(=C\c2nc3ccccc3c(=O)n2-c2ccccc2)c2ccccc21 | inconclusive: 18.5 µM [inhibitor, single point]
3 | COc1cc(C2C(C#N)=C(N)N(N(C)C)C3=C2C(=O)CC(C)(C)C3)ccc1O (centres undefined) | inactive
4 | COc1ccc(N2CCN(C(=O)CC34CC5CC(CC(C5)C3)C4)CC2)c([N+](=O)[O-])c1 | inconclusive: 10.4 µM [inhibitor, single point]
5 | Cc1nc2ccc(NC(=O)C3COc4ccccc4O3)cc2s1 (centres undefined) | inactive
6 | COc1ccccc1C(=O)NC(=O)COC(=O)c1cccc(C)c1O | inconclusive: 16.5 µM [inhibitor, partial curve, poor fit]
7 | Cc1nn(Cc2ccccc2)c(C)c1C(=O)N1CCN(CC(=O)Nc2ccccc2Cl)CC1 | inconclusive: 11.7 µM [inhibitor, partial curve, poor fit]
8 | CCOc1cc(N2CCOCC2)c(OCC)cc1NC(=O)C1=COCCO1 | inconclusive: 10.4 µM [inhibitor, single point]
9 | Cc1ccc(SC(C)C(=O)NCC(C)C)cc1 (centres undefined) | active: 14.7 µM
10 | CCOC(=O)CN1C(=O)N[C@H](c2ccc(Br)cc2)C(C(C)=O)=C1C | inactive
11 | N#CC(C#N)=CNc1cccnc1 | inactive
12 | Cc1ccsc1/C=N/NC(=O)c1ccc2c(c1)OCCO2 | inactive
13 | CCN1CCCC1CNC(=O)C1CCN(Cc2nc(-c3cccc(Br)c3)oc2C)CC1 (centres undefined) | active: 6.57 µM
14 | COc1ccc(C2CC(c3ccccc3)=NN2c2ccc(S(N)(=O)=O)cc2)cc1 (centres undefined) | active: 13.1 µM
15 | O=C(N/N=C/C(Cl)=C/c1ccc([N+](=O)[O-])cc1)C(=O)Nc1ccc(C(=O)O)cc1 | active: 11.7 µM
16 | CCOC(=O)c1cc2c(=O)n3cccc(C)c3nc2n(Cc2ccccc2Cl)c1=N | inactive
17 | CN(CCCNC(=O)CCC(=O)N1CCOc2ccc(Cl)cc21)Cc1ccccc1 | inactive
18 | COc1ccc(-c2csc(N(CCc3ccc(OC)c(OC)c3)C(=O)COc3ccccc3)n2)cc1 | active: 10.4 µM
19 | O=C(c1ccco1)N1N=C(c2ccc3nccnc3c2)CC1c1ccccc1 (centres undefined) | inconclusive: 13.1 µM [inhibitor, single point]
20 | C/C(Cl)=C\Cn1c(N2CCCCCC2)nc2c1c(=O)n(C)c(=O)n2C | inconclusive: 8.28 µM [inhibitor, partial curve, poor fit]
21 | CC(NC(=O)CCC(=O)N1CCCCCC1)c1ccccc1 (centres undefined) | inconclusive: 0.233 µM [inhibitor, full curve, poor fit]
22 | COc1ccc2oc(C(=O)OCC(=O)N(C)C3CCS(=O)(=O)C3)c(C)c2c1 (centres undefined) | inactive
23 | O=C(c1cc([N+](=O)[O-])ccc1Cl)N1CCN(c2ccc([N+](=O)[O-])cc2)CC1 | inactive
24 | Cc1ccc(NC(=S)N2CCC(c3nc4ccccc4s3)CC2)cc1 | inconclusive: 18.5 µM [inhibitor, single point]
25 | CN1CCN(c2c(F)cc3c(=O)c(C(=O)O)cn4c3c2SCC4)CC1 | inconclusive: 12 µM [inhibitor, single point] and inconclusive: 9.28 µM [inhibitor, partial curve, poor fit]

Row | Compound | Potency
26 | Cc1cc(C)c(NS(=O)(=O)c2ccc3c(c2)NC(=O)C(C)C(=O)N3)c(C)c1 (centres undefined) | inconclusive: 13.1 µM [inhibitor, partial curve]
27 | O=C(Nc1ccc(N2CCOCC2)cc1)Nc1ccc2nc(-c3ccco3)c(-c3ccco3)nc2c1 | inconclusive: 10.4 µM [inhibitor, single point]
28 | Cc1ccc(C)c(C(=O)NCc2ccncc2)c1 | inactive
29 | CCOC(=O)CSc1nnc(NCC(=O)OC(C)C)c(=O)[nH]1 | inactive
30 | CCNC(=O)c1ccccc1CCc1ccccc1 | inactive
31 | CCOc1cc2[nH]c(=O)n(CCc3ccc(OC)c(OC)c3)c(=O)c2cc1OCC | inconclusive: 5.22 µM [inhibitor, partial curve, poor fit]
32 | CC(C)=CCc1c2c(c3occ(-c4ccc(O)cc4)c(=O)c3c1O)C=CC(C)(C)O2 | inconclusive: 11.7 µM [inhibitor, partial curve]
33 | COc1ccccc1NC(=S)N1CCC(NC(=O)C23CC4CC(CC(C4)C2)C3)CC1 | inconclusive: 14.7 µM [inhibitor, partial curve]
34 | CNC(=O)COc1ccc(Cl)c2cccnc12 | inactive
35 | Nc1nn(S(=O)(=O)c2ccccc2)cc1-c1cccc([N+](=O)[O-])c1 | active: 10.4 µM
36 | COc1ccc2c(c1)CC(C)C/C2=N\NC(=O)c1ccco1 (centres undefined) | inconclusive: 0.329 µM [inhibitor, partial curve, poor fit]
37 | COc1cc(C(=O)O[C@H]2C/C(C)=C/CC[C@]3(C)O[C@@H]3C(O)C2C(C)C)cc(OC)c1OC (some centres undefined) | inconclusive: 9.28 µM [inhibitor, single point]
38 | CC(C)Oc1ccc(C(=O)Nc2cc(S(=O)(=O)N3CCOCC3)ccc2N2CCOCC2)cc1 | active: 13.1 µM
39 | O=C(NCCCN1CCOCC1)c1ccc(CNS(=O)(=O)c2ccc(Br)cc2)cc1 | inconclusive: 8.28 µM [inhibitor, partial curve]
40 | CN(Cc1ccccc1)C(=O)CN1C(=O)NC(C)(c2ccc(C(C)(C)C)cc2)C1=O (centres undefined) | inconclusive: 11.7 µM [inhibitor, partial curve]
41 | Cc1cc(C)c(NC(=O)CSc2nccn2C)c(C)c1 | inactive
42 | CCCCCOC(=O)c1ccc(NC(=O)c2ccco2)cc1 | active: 1.31 µM
43 | COc1cc(S(=O)(=O)N(Cc2cccnc2)Cc2cccc(OC)c2OC)ccc1-n1cnnn1 | inconclusive: 11.7 µM [inhibitor, single point]
44 | CCc1sc(-c2ccccc2)nc1C(=O)OC | inactive
45 | Cc1cc(C(=O)N2CCN(c3ccc([N+](=O)[O-])cc3)CC2)c(C)o1 | inactive
46 | Cc1cc(NC(=O)C(C)SCC(=O)NCc2ccc(F)cc2)no1 (centres undefined) | inconclusive: 11.7 µM [inhibitor, single point]
47 | COCCn1c(SCC(=O)Nc2cccc(NC(C)=O)c2)nc2c([nH]c3ccccc32)c1=O | inactive
48 | CCCCn1c(SCc2ccc(C(=O)OC)o2)nc2cc(S(N)(=O)=O)ccc21 | inconclusive: 11.7 µM [inhibitor, single point]
49 | COC(=O)c1c(CSc2cccc(C)c2)noc1C(=O)NCc1ccco1 | active: 2.62 µM
50 | Cc1ccc(C(=O)NC2(C(Cl)Cl)N=C(c3ccccc3)N=C2N)cc1 (centres undefined) | inconclusive: 0.928 µM [inhibitor, full curve]

Row | Compound | Potency
51 | COc1cccc(CN2CC(C(=O)NCc3ncc(C)[nH]3)CCC2=O)c1 (centres undefined) | inactive
52 | O=C(CN1C(=O)C2C3C=CC(C3)C2C1=O)OCC(=O)c1ccc(Cl)cc1 (centres undefined) | inactive
53 | CCCCOC(=O)C1C2C=CC3(CN(CCc4ccccc4)C(=O)C13)O2 (centres undefined) | inconclusive: 10.4 µM [inhibitor, partial curve]
54 | COc1ccc(-c2[nH]ncc2CN2CCC(C(=O)c3ccc(F)cc3)CC2)cc1 | inconclusive: 2.94 µM [inhibitor, full curve, poor fit]
55 | CC(=O)Nc1ccc(NC(=O)C(=O)c2cn(CC(=O)N3CCCCC3)c3ccccc23)cc1 | inconclusive: 5.86 µM [inhibitor, partial curve, poor fit]
56 | COC(=O)c1ccc(S(=O)(=O)N(Cc2ccccc2)Cc2ccccc2)n1C | inconclusive: 18.5 µM [inhibitor, single point]
57 | COC(=O)c1ccc(N2NC(=O)/C(=C/c3cc(OC)c(OC)c(OC)c3)C2=O)cc1 | inconclusive: 10.4 µM [inhibitor, single point]
58 | c1coc(CNc2nc(-c3cccs3)cs2)c1 | inconclusive: 11.7 µM [inhibitor, single point]
59 | Cc1nn(CC(=O)OCC(=O)NCCc2ccc(S(N)(=O)=O)cc2)c(C)c1[N+](=O)[O-] | inactive
60 | C=CCN(CC=C)C(=S)NC(=O)c1ccc([N+](=O)[O-])cc1 | inconclusive: 13.1 µM [inhibitor, single point]
61 | O=S(=O)(c1ccc(OCC(O)CN2CCCCC2)cc1)N1CCOCC1 (centres undefined) | inactive
62 | CC(C)(C)c1ccc(-c2nc(C#N)c(N3CCC(C(N)=O)CC3)o2)cc1 | inconclusive: 11.7 µM [inhibitor, single point]
63 | CCCS(=O)(=O)c1nc(S(=O)(=O)c2ccc(C)cc2)c(N2CCN(CCO)CC2)s1 | inactive
64 | CCCCCn1c(CN2CCN(C(=O)c3ccco3)CC2)nc2c1c(=O)n(C)c(=O)n2C | active: 9.28 µM
65 | CCCCC(CC(O)COCCC)c1n[nH]c(=S)n1-c1ccccc1 (centres undefined) | inactive
66 | CCCCc1nnc(NC(=O)CCS(=O)(=O)c2ccc(Cl)cc2)s1 | inconclusive: 18.5 µM [inhibitor, single point]
67 | CSc1ccc(/C=C(\C#N)C(=O)NC2CCCCC2C)cc1 (centres undefined) | inconclusive: 11.7 µM [inhibitor, single point]
68 | O=c1[nH]c(CSc2ccccn2)nc2ccccc12 | inactive
69 | O=C(CSc1nccn1-c1ccccc1)NO | active: 2.08 µM
70 | CCOc1ccc(/C=C2\NC(=S)NC2=O)cc1 | inactive
71 | COc1ccc(S(=O)(=O)N(C)c2ccc(C(=O)NCCC(C)C)cc2)cc1 | inactive
72 | O=C(Nc1ccc2c(c1)OCCO2)C(=O)NC1CC1 | inactive
73 | O=C(NC1CCN(Cc2ccccc2)CC1)c1cccc(S(=O)(=O)Nc2ccc(Br)cc2)c1 | active: 11.7 µM
74 | COc1ccc(C2NC(=O)NC(C)=C2C(=O)OC2CCCCC2)cc1OC (centres undefined) | inactive

Reference: PubChem BioAssay AID504832 (National Center for Advancing Translational Sciences (NCATS), 2011)
